T1: human SP-D (R et D Systems, reference 1920-SP-050) (human, UniProt P35247 21-375)
T1 construct: also called Surfactant Protein D; SP-D ligand
T1 sequence (looked up): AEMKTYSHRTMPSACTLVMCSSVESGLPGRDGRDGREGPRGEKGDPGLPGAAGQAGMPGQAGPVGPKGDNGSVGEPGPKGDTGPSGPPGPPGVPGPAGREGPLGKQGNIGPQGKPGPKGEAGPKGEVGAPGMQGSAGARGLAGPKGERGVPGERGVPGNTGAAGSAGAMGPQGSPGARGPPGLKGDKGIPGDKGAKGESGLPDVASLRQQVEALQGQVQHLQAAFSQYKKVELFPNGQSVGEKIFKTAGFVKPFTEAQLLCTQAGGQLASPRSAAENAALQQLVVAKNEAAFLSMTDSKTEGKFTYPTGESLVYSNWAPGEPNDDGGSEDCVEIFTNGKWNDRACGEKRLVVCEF

B1: modified anti-SIRPa HEFLB antibody with ECD of PD1 on the light chain (antibody, human IgG4 S228P, kappa)
heavy: EVQLVQSGAEVKKPGESLRISCKASGYSFTSYWVHWVRQMPGKGLEWMGNIDPSDSDTHYSPSFQGHVTLSVDKSISTAYLQLSSLKASDTAMYYCVRGGTGTLAYFAYWGQGTLVTVSSASTKGPSVFPLAPCSRSTSESTAALGCLVKDYFPEPVTVSWNSGALTSGVHTFPAVLQSSGLYSLSSVVTVPSSSLGTKTYTCNVDHKPSNTKVDKRV[sequence of human IgG4 Fc with S228P L445P (EU numbers) omitted]
light: DVVMTQSPLSLPVTLGQPASISCRSSQSLVHSYGNTYLYWFQQRPGQSPRLLIYRVSNRFSGVPDRFSGSGSGTDFTLKISRVEAEDVGVYYCFQGTHVPYTFGGGTKVEIKRTVAAPSVFIFPPSDEQLKSGTASVVCLLNNFYPREAKVQWKVDNALQSGNSQESVTEQDSKDSTYSLSSTLTLSKADYEKHKVYACEVTHQGLSSPVTKSFNRGECGGGGSGGGGSGGGGSPGWF[sequence of about 150 residues omitted]
notes: HEFLB with the ECD fused at the C-terminus of the light chain; also called VH+VLprot (PD1); HEF + LB-PD1
B2: recombinant hSIRPa (Sino Biologicals, reference 11612-H08H) (receptor)
chain: not shown
notes: also called SIRPa-His; human SIRPa-His; not shown: His tag (histidine tail)

What was measured:
[1] = molecular target: B2; assay: ELISA on immobilized SIRPa-His, peroxidase anti-human IgG, DO 450nm [panel PD1]
Experimental: Method: For ELISA assay, recombinant hSIRPa (Sino Biologicals, Beijing, China; reference 11612-H08H) was immobilized on plastic at 0.5 μg/ml in carbonate buffer (pH9.2) and different modified anti-SIRPa antibodies were added to measure binding to SIRPa.

[2] = molecular target: T1, human SP-D (R et D Systems, reference …); assay: BLI (Blitz); SIRPa-His on Ni-NTA biosensor, SP-D at 100 ug/ml, no antibody [B, table B]
[3] = molecular target: T1, human SP-D (R et D Systems, reference …); assay: BLI (Blitz); SIRPa-His on Ni-NTA biosensor pre-incubated with mouse 18D5 at 20 ug/ml, then SP-D at 100 ug/ml [B, table B]
Experimental: FIG. 6. […] SIRPa-His recombinant protein was immobilized onto a NINTA biosensor at 10 μg/ml and the anti-SIRPa antibody was added at 20 μg/ml (saturating concentration).
Analysis of data was made with the Blitz pro 1.2 software, which calculated association constant (ka) and dissociation constant (kd) and determined the affinity constant KD […].

| Binder | binding result [1] | Kd [2] | koff [2] | kon [2] | Kd [3] | koff [3] | kon [3] |
| --- | --- | --- | --- | --- | --- | --- | --- |
| B1 | binds |  |  |  |  |  |  |
| B2 |  | 4370 nM | 0.0108 s⁻¹ | 2460 M⁻¹ s⁻¹ | 735 nM | 0.00241 s⁻¹ | 3270 M⁻¹ s⁻¹ |
